# Test results reported in article PMC12136788.
# The list shows a part of the results.
# T1: UNK ZnF1-3 (human, UniProt Q9C0B0 31-174)
# T1 sequence: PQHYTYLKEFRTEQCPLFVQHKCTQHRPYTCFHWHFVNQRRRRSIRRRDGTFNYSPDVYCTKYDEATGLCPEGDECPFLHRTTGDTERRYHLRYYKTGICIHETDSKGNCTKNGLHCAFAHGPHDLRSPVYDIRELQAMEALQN
# B1: chr3:179287964:179287965:+_ENSG00000136518_ENST00000429709|hu_hu|hu_hu_hu_mus_True|1_108 (ssRNA)
# RNA: GGGAGUUCUACAGUCCGACGAUCCUUUAGAGGUGAAAUGGCCUCCAUGUUCUCCCUGGGCACGCGGAGGGCAUUGGUGUCUAUGUAGUAGGUGGGCCCGCCCUGCUUGCCUUUGUCACCAUCAAUCUCCAUCAUUGUGCUUCCCAACAGAGGAUUGAGCAUCA
# B2: chr4:17845017:17845018:+_ENSG00000109805_ENST00000514176|hu_mus|hu_hu_hu_mus_False|28_78 (ssRNA)
# RNA: GGGAGUUCUACAGUCCGACGAUCGCUCUCUUAACUUGUAUCUUCAUUAAGGAACUCGCAAGGUUAAAGUUUACUUUUCUGUAGCGCAGCUGUUUUGGCUCGUCUGGUAGUCUCAUCCUUCAUUUCUGAUGGUGGUUCAUGAUCCAACAGAGGAUUGAGCAUCA
# B3: 25664507_25664627_160_5pUTR_ENSG00000183726_ENST00000374358|human|control|control (ssRNA)
# RNA: GGGAGUUCUACAGUCCGACGAUCAAGUUGCUCUGUGUGCUGAGCGUUCUAAAGGAAGGCGUCCGUUGGCCUUCGUACCCGUCUUGAGUGAGGUGACGAGUGUUUUCUAGUACUGGGGUCGGCCGCGCAGCCCUCUCAGGGGUGCAACAGAGGAUUGAGCAUCA
# B4: chr7:149068622:149068623:-_ENSMUSG00000025139_ENSMUST00000001950|mus_hu|mus_mus_mus_hu_False|1_48 (ssRNA)
# RNA: GGGAGUUCUACAGUCCGACGAUCGUGAGGCCUCUGAGUGUGGCUUGUGGUCUGUCCUGGGUUAGAGUUGUUAAUAUCACGGAACAUACCACUUAAGACGUUCCAGUCCCGCCUGACACCUUCAUUCCCAAUGGAGAAUCUGCUCAACAGAGGAUUGAGCAUCA
# B5: 70785274_70785394_1580_CDS_ENSG00000145734_ENST00000358731|human|control|control (ssRNA)
# RNA: GGGAGUUCUACAGUCCGACGAUCUAGGUCUACUUCUAAUGCAACCUGCUCUGCAUCCUCCCUUGAUAAGGUCAGAGACUCUUCUUCAACUGUCUGAGCAUCCUUCUGAGAUCUUUCCGUGUCUGAAAUUCUAGAACUCAUAGACAACAGAGGAUUGAGCAUCA
# B6: chr1:58468927:58468928:-_ENSMUSG00000026034_ENSMUST00000148330|mus_mus|mus_mus_mus_hu_False|18_38 (ssRNA)
# RNA: GGGAGUUCUACAGUCCGACGAUCAAUUACUGAAAAAGAUGUUCAUUACCUUAGCUAUGUACUUAAUGAACCAAAUUACCCAAACAAAAUAAACAUGUUUACAAAUUAAUGUUAAGAAAAUAACUUACUGUACAAAAUAACUUACAACAGAGGAUUGAGCAUCA
# B7: chr7:135850644:135850645:-_ENSMUSG00000048170_ENSMUST00000057557|mus_mus|motif|central (ssRNA)
# RNA: GGGAGUUCUACAGUCCGACGAUCGUAGAGGUGUUCCGUGAAGGUACUGUUCUGCGGGCAACCACUCAGGUUAACUGUAAAUUUUCCGGGAGGAAGUACAUCUCUUCUUGUAUACACUGUAGAGAUGAGAUGCAAUAUAAGAUACAACAGAGGAUUGAGCAUCA
# B8: 57415345_57415465_633_3pUTR_ENSG00000087460_ENST00000313949|human|control|control (ssRNA)
# RNA: GGGAGUUCUACAGUCCGACGAUCCUAGGCACUCGGGGAGGGACAGCUCAAGGUCUGCCUCCUCGUGCUCGUGGUCAGAUUCCGAUUCGGGGGACUCAGGGAAUACCUGGGCGCCGGAGCGGUGGUGGGCGUUAAGGAAGCUCCCAACAGAGGAUUGAGCAUCA
# B9: chr4:120564322:120564323:+_ENSMUSG00000032890_ENSMUST00000071093|mus_hu|FALSE|FALSE (ssRNA)
# RNA: GGGAGUUCUACAGUCCGACGAUCUCCACACAACACUCCUUUGGGUUUCUUUUCAACAAGACACAAAGAGACGUGGAGACAUUUCAGCCCAUAUCAUCACCAGGAGUGACUAUACCCAGACAAAUGAACAGAUAGAACGUGGUCCAACAGAGGAUUGAGCAUCA
# B10: chr7:65705844:65705845:+_ENSG00000169902_ENST00000304842|hu_mus|hu_hu_hu_mus_False|1_1 (ssRNA)
# RNA: GGGAGUUCUACAGUCCGACGAUCAAACGGAUCUUUGUUACAUAAAUAAGGUGCCGGCUCCCCAUGUUUAACAAUGACCUCCAGAAGGAAGGCUUGCAUGGCAGAAUCUAGCACUUCAUCUGUGACACCCGCCUCAUCCAGGCGCAACAGAGGAUUGAGCAUCA
# B11: chr14:89305849:89305850:+_ENSG00000165533_ENST00000346301|hu_hu|FALSE|FALSE (ssRNA)
# RNA: GGGAGUUCUACAGUCCGACGAUCAGCAUUUUCAUCCAGCAUCAUUUCUGCAAUUCCUUCCUGAUCUACAUCAAUUUCAUCUAUGUAUACCAUUUCUGUUAGCGCUCUUGCUUUUAAGAUCCAAGCUGCCUGGUCAUAAGGGGACAACAGAGGAUUGAGCAUCA
# B12: chr10:79795341:79795342:+_ENSG00000138326_ENST00000360830|hu_hu|FALSE|FALSE (ssRNA)
# RNA: GGGAGUUCUACAGUCCGACGAUCAUGAGUUCUGAAUCCAAAUACAAAGAUGACAUCCGGUGUGGUCUUGUACAUUUUGGCUAGUUUUUCCCGAAUUUCUGUCUUAGGCACUGUCGCCUUCCCGGGGUGAAGGACAUCAAUGACCAACAGAGGAUUGAGCAUCA
# B13: 30352122_30389648_287_CDS_ENSMUSG00000029775_ENSMUST00000068259|mouse|control|control (ssRNA)
# RNA: GGGAGUUCUACAGUCCGACGAUCGUGGCCUCUCAAGAACCUGUUAGGGAUCCUUAUGAUGGGACAGGACUGAAUGAAGCGCCUCCUAACUGGGUCCCACCGUAUUUUCUUCUUACCUGGCAGGUGCGGCCGUCCCGAGAGCUGCAACAGAGGAUUGAGCAUCA
# B14: 42223328_42223448_1859_3pUTR_ENSMUSG00000037287_ENSMUST00000125995|mouse|control|control (ssRNA)
# RNA: GGGAGUUCUACAGUCCGACGAUCUCAGAAUGAAAACCAGACCCAGGACCCCCAAAUGGAAAGGAGGAGGAGGAGGGGCAGGGAAGGAAGAGCCAGAGAAGGCCCUCCCUAGGAGGACCCCCAUCCCUCCCUAGGAGGACCCCACAACAGAGGAUUGAGCAUCA
# Molecular target: T1, UNK ZnF1-3
# Test: nsRBNS (natural sequence RNA bind-n-seq); RBNS binding buffer (assumed for nsRBNS): 25 mM Tris pH 7.5, 150 mM KCl, 3 mM MgCl2, 0.01% Triton X-100, 500 ug/ml BSA, 20 U/ml SUPERase-In, 4 C; UNK is unkempt and MSI1 is Musashi-1; names of the RNAs are library labels; protein concentration not given here; high values mean tight binding
row,Binder,binding signal
1,B1,0.806 enrichment R
2,B2,0.429 enrichment R
3,B3,0.892 enrichment R
4,B4,0.707 enrichment R
5,B5,0.941 enrichment R
6,B6,2.31 enrichment R
7,B7,1.46 enrichment R
8,B8,0.766 enrichment R
9,B9,1.15 enrichment R
10,B10,0.379 enrichment R
11,B11,1.02 enrichment R
12,B12,0.989 enrichment R
13,B13,0.965 enrichment R
14,B14,1.4 enrichment R
